Assay results published in PubChem BioAssay (NCI).
“And” between values parts separate entries of the source, which are not always exact repeats. Identical values can stand only once.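 Step 1: Grow cells in 96-well plates. Step 2: Expose to compound for 48 hours at 5 concentrations. Step 3: Interpolate endpoints linearly; if unreached, use highest concentration. GI50 is the concentration that inhibits growth by half. At the TGI there is no net growth.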

Tested on: NCI-H322M lung
Test: DTP human tumour cell line panel, 48 h

| Compound | GI50 | TGI |
| --- | --- | --- |
| N#C/C(=C\c1ccc([N+](=O)[O-])cc1)n1nnc2cc(F)c(F)cc21 | 2.17 µM | 6.13 µM |
| CCC(CO)COC(=O)/C=C/C(=O)OCC(CC)CO (centres undefined) |  | > 100 µM |
| c1ccc2c(CNCCCN3CCN(CCCNCc4cccc5ccccc45)CC3)cccc2c1 |  | 3.8 µM |
| Clc1ccc(-c2cn3c(nc4ccccc43)c(/C=C/c3cccs3)n2)cc1 |  | > 100 µM |
| COC(=O)Nc1nc2ccc(C(=O)C3CC3)cc2[nH]1 | 0.586 µM | > 100 µM |
| [N-]=[N+]=NCC(=O)c1c[nH]c(=O)[nH]c1=O |  | > 100 µM |
| CN1CCN(Cn2nc(-c3ccccc3)n(/N=C/c3ccc(-c4ccc(Cl)cc4Cl)o3)c2=S)CC1 |  | 99.2 µM |
| Nc1ncnc2occ(-c3ccc(NC(=O)Nc4cc(C(F)(F)F)ccc4F)cc3)c12 | 6.5 µM and 2.22 µM | 16.8 µM and 9.29 µM |
| CC[n+]1c(/C=C/c2ccc(N3CCCC3)cc2)cccc1/C=C/c1ccc(N2CCCC2)cc1 | 0.537 µM | 2.44 µM |
| Fc1cc(C2=Nn3c(nnc3-c3cc(F)c(Cl)cc3Cl)SC2)c(Cl)cc1Cl | 29.1 µM | 86.9 µM |
| COc1cc2c(OC)c3cc(C)oc(=O)c3c(O)c2c(O)c1-c1c(OC)cc2c(OC)c3cc(C)oc(=O)c3c(O)c2c1O |  | 41.4 µM |
| CCOC(=O)Nc1nc(-c2ccccc2)c(C)s1 |  | > 100 µM |
| CC(C)(Cl)C(Br)CCC(=CCBr)CBr (mixture of isomers) |  | 28 µM |
| COc1cc(S(=O)(=O)Nc2ccc(-c3csc(/N=C\c4ccccc4O)n3)cc2)ccc1Cl |  | > 100 µM |
| CSc1nc(SC)c2cnn(-c3ccnc4cc(Cl)ccc34)c2n1 | 43.1 µM | > 100 µM |
| N#Cc1nc(/C=C/c2cccs2)oc1N |  | > 100 µM |
| Cc1cc2c(=O)cc(-c3ccc(Cl)cc3Cl)oc2c(C(=O)O)c1C |  | > 100 µM |
| O=C(CSc1nc2ccc([N+](=O)[O-])cc2[nH]1)Nc1ccc([N+](=O)[O-])cc1 | 3.07 µM | 13.6 µM |
| Nc1ccc(N=Nc2ccc(-c3ccc(N=Nc4c(S(=O)(=O)O)cc5cc(S(=O)(=O)O)c(N=Nc6ccc([N+](=O)[O-])cc6)c(N)c5c4O)cc3)cc2)c2cc(S(=O)(=O)O)ccc12 |  | > 100 µM |
| COC(=O)C(=O)C(C(=O)C(=O)Nc1ccccc1C(N)=O)c1nc2ccc([N+](=O)[O-])cc2[nH]c1=O (centres undefined) |  | > 100 µM |
| Oc1c(CCl)cc(Cl)cc1Cc1cc(Cl)cc(Cc2cc(Cl)cc(CCl)c2O)c1O | 3.13 µM | 13.5 µM |
| CCOC(=O)c1sc2c(c1OC(=O)c1ccc(Cl)cc1Cl)c(=O)n(-c1ccccc1)c(=S)n2-c1ccccc1 |  | > 100 µM |
| ClCCN(CCCl)c1ccc(OCc2ccccc2)cc1 | 17.2 µM | 64.4 µM |

| Compound | GI50 | TGI |
| --- | --- | --- |
| COc1c(O)cc2c(c1CC=C(C)C)OC(=O)c1c(cc(O)c(CC=C(C)C)c1O)O2 | 3.6 µM | 7.3 µM |
| N=C(N)SCCSC(=N)N |  | > 100 µM |
| COc1ccc(-c2c(C(C)=O)c(C)n(C3OC(COC(C)=O)C(OC(C)=O)C(OC(C)=O)C3OC(C)=O)c(=S)c2C#N)cc1 (centres undefined) |  | > 100 µM |
| CCN1CCC(O)(/C=C/c2cccc(C)c2)C(C(=O)/C=C/c2cccc(C)c2)C1 (centres undefined) |  | 14.7 µM |
| CN(NC(=O)c1ccc(Cl)cc1)C1=NCCCCN1 |  | > 100 µM |
| Nc1cc2c(c3ccccc13)C(CCl)CN2C(=O)c1cc2cc(NC(=O)c3cc4ccccc4o3)ccc2[nH]1 (centres undefined) | > 0.11 µM | 913 µM |
| Cc1ccc([I+]c2ccc(C)cc2)cc1 | 15.5 µM | > 100 µM |
| C=C1CC2(C)CCC(OC(=O)C3(C)OC3C)C(C)(OC(C)=O)C2CC1=C(C)C (centres undefined) |  | > 100 µM |
| O=c1cc(CN2CCCCC2)[nH]c2c1ccc1nc(CN3CCCCC3)cc(=O)n12 |  | > 100 µM |
| O=C(CSc1nc(-c2ccccc2)c(-c2ccccc2)[nH]1)N/N=C/c1ccc([N+](=O)[O-])cc1 |  | 51 µM |
| NC(=S)Nc1c(S(N)(=O)=O)cc(S(N)(=O)=O)c(Cl)c1Cl |  | > 100 µM |
| Cc1cc2c(=O)cc(-c3ccc(O)cc3)oc2c(C(=O)O)c1C |  | > 100 µM |
| CCOC(=O)C1C(c2ccccc2)C2(C#N)C(=N)OC1(C)C2(C#N)C#N (centres undefined) |  | 67.7 µM |
| O=C(O)c1cc(C(=O)C(=O)c2cc(C(=O)O)c(O)c3ccccc23)c2ccccc2c1O |  | > 100 µM |
| NS(=O)(=O)c1ccc(N=Nc2c(O)[nH]c3cccc(CCc4ccncc4)c23)cc1 | > 25 µM | > 25 µM |
| CCc1nc2c(n1CC)C(=O)c1ccccc1C2=O |  | > 100 µM |
| CC(=O)OCC(OC(C)=O)C(OC(C)=O)C(/C=N\Nc1nc2ccccc2c(=O)[nH]1)OC(C)=O (centres undefined) |  | > 100 µM |
| Cc1c(/C=N/NC(=S)Nc2ccc([N+](=O)[O-])cc2)c(=O)n(-c2ccccc2)n1C |  | 47.5 µM |
| Cc1ccc(S(=O)(=O)NN=C2C(C)CC(C(C)(C)C)CC2C)cc1 (centres undefined) |  | 34 µM |
| CC(C)c1ccc2c(c1)CCC1C(C)(CN)CCCC21C (centres undefined) |  | 3.1 µM |
| CC[C@H]1[C@@H](C)C=C[C@@H](C)N1S(=O)(=O)c1ccc(C)cc1 |  | > 100 µM |
| CC(C)(C)OC(=O)CCC1NC(=O)[C@@H]2Cc3c([nH]c4ccccc34)C(c3ccccc3)N2C1=O (some centres undefined) |  | > 100 µM |
| CC1=N/C(=C\c2ccc(N)cc2)C(=O)N1Nc1nnc(NN2C(=O)/C(=C/c3ccc(N)cc3)N=C2C)c2ccccc12 |  | > 100 µM |
